Among all 390,000 compounds or so, about 930 (0.24%) were called active. Inconclusive results, whose numbers are uncertain, are shown with a selection of clear calls. The call rests on the fitted dose curve; in most records, active means well fitted activation curve with a large enough effect; inconclusive means small, poorly fitted or top-dose-only effect; inactive means no such curve, though single readings can be large or run the other way. Where the call is inconclusive, the potency comes from a doubtful curve fit.
Experiment: qHTS for Suppressors of FUS Proteinopathy: Primary screen using FUS-linked yeast assay; further: nearly all actives have a fitted effect of over 55% in size;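 on growth rescue (activation): plate controls were DMSO vehicle for no effect and reference control for full effect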
Settings: S. cerevisiae FUS-expressing, OD600, 24 h; Potency: growth rescue; growth rescue (activation): at 76.6 µM (top of the series)
Procedure, shortened: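 Toxicity suppression screen in FUS-yeast. Cells induced with 2% galactose, starting OD 0.005, treated 24hr at 30C with compounds at multiple final concentrations; growth by OD600.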
Potency means the concentration at half of the fitted maximal effect; tags describe the fitted curve by direction and shape.

| SMILES | Potency | growth rescue (activation) |
| --- | --- | --- |
| O=C(CSc1nc(Cc2ccccc2)nc2ccccc12)Nc1ccc2c(c1)OCCO2 | inconclusive: 39.8 µM [activator, partial curve, poor fit] |  |
| Cc1ccc(-c2ccc(NC(=O)C3C4C=CC(C4)C3C(=O)O)cc2)o1 (centres undefined) | inconclusive: 31.6 µM [activator, single point] |  |
| O=C(Nc1nc2ccc(Cl)cc2s1)c1cccc(N2C(=O)CCC2=O)c1 |  | inactive: -4.25% |
| COc1ccc(C2C=C(c3ccccc3)Nc3nc(NS(=O)(=O)c4ccc(Cl)cc4)nn32)cc1 (centres undefined) | inconclusive: 35.5 µM [activator, single point] |  |
| Cc1cc2cc(CNC(=O)Nc3ccccc3)ccc2n1C | inconclusive: 15.8 µM [activator, partial curve, poor fit] |  |
| C[C@H]1CN([C@@H](C)CO)C(=O)c2cccc(NC(=O)Nc3ccc(C(F)(F)F)cc3)c2O[C@@H]1CN(C)C(=O)Nc1ccc(F)cc1 | inconclusive: 50.1 µM [activator, single point] |  |
| COc1ccc(-n2c(SCC(=O)Nc3ccc(C(N)=O)cc3)nc3c([nH]c4ccccc43)c2=O)cc1OC | inconclusive: 35.5 µM [activator, partial curve, poor fit] |  |
| COc1cc2c(=O)n(CCc3ccccc3)c(=O)n(CC(=O)Nc3ccccc3)c2cc1OC | inconclusive: 44.7 µM [activator, single point] |  |
| C[C@H]1CCCCO[C@H](CN(C)C(=O)C2CCCCC2)[C@@H](C)CN([C@@H](C)CO)C(=O)c2cc(NC(=O)NC3CCCCC3)ccc2O1 | inconclusive: 31.6 µM [activator, single point] |  |
| C/C(=C/c1oc2ccc(O)cc2c1[N+](=O)[O-])N(C)C | inconclusive: 3.55 µM [activator, partial curve, poor fit] |  |
| Cc1ccc(-c2csc(NCCc3nc4cc(Cl)c(Cl)cc4n3CCOCCO)n2)cc1 | inconclusive: 25.1 µM [activator, partial curve] |  |
| CCOC(=O)Cc1ncccc1C(=O)Nc1ccc(OC(F)(F)F)cc1 | inconclusive: 50.1 µM [activator, single point] |  |
| Cc1ccccc1N=C/C=C1/C=C(c2ccccc2)OC(C)(C)O1 | inconclusive: 17.8 µM [activator, partial curve] |  |
| CCOc1ccc(CCNC(=O)c2cc3c(-c4ccc(OC)c(OC)c4)nn(C)c3s2)cc1OCC | inconclusive: 39.8 µM [activator, partial curve, poor fit] |  |
| COc1ccc(NC(=O)CSc2nc(NS(=O)(=O)c3ccccc3)cc(=O)[nH]2)cc1 | inconclusive: 28.2 µM [activator, partial curve, poor fit] |  |
| CCCCOc1ccc(N(CC(=O)NCC2CCCO2)C(=O)CCC(=O)Nc2cc(C)ccn2)cc1 (centres undefined) | inconclusive: 31.6 µM [activator, partial curve, poor fit] |  |
| O=C(O)c1ccc(/C=N/N2CCN(Cc3ccc(Cl)cc3)CC2)cc1 | inconclusive: 3.55 µM [activator, full curve] |  |
| Cc1coc2cc3oc(=O)c(CC(=O)NCCc4ccccc4)c(C)c3cc12 |  | inactive: -25.2% |
| CC(C)C[C@@H](CN1CCC[C@@H]1CN1C(=S)NC[C@@H]1Cc1ccc(O)cc1)N1C[C@H](Cc2ccc(O)cc2)N(CC2CCCCC2)C1=S | inconclusive: 50.1 µM [activator, single point] |  |
| O=C(c1ccco1)N1CCN(C(=O)c2ccc(COc3ccc(Cl)cc3Cl)o2)CC1 | inconclusive: 50.1 µM [activator, single point] |  |

| SMILES | Potency | growth rescue (activation) |
| --- | --- | --- |
| Clc1ccc(-c2nc(N3CCCCC3)nc3ccccc23)cc1 | inconclusive: 35.5 µM [activator, partial curve, poor fit] |  |
| Cc1ccccc1-c1noc(CCC(=O)NCc2ccco2)n1 | inconclusive: 50.1 µM [activator, single point] |  |
| COc1ccc2[nH]c(=O)c(CN(Cc3cccs3)Cc3nnnn3C(C)(C)C)cc2c1 | inconclusive: 35.5 µM [activator, partial curve, poor fit] |  |
| COc1ccccc1NC(=O)CSc1nnc(-c2ccoc2C)o1 |  | inactive: 10.7% |
| O=C1CC(/C=C/c2ccccc2)=Nc2ccccc2N1 | inconclusive: 50.1 µM [activator, single point] |  |
| Cc1onc(-c2ccccc2)c1C(=O)Nc1nnc(N(C)Cc2ccccc2)s1 | inconclusive: 14.1 µM [activator, partial curve, poor fit] |  |
| CCc1ccccc1NC(=O)CSc1nnc2ccc3ccccc3n12 |  | inactive: 6.59% |
| Cc1ccc2cc(CN(CC3CCCO3)S(=O)(=O)c3ccccc3)c3nnnn3c2c1 (centres undefined) | inconclusive: 22.4 µM [activator, partial curve] |  |
| COc1cc(C)c(C)cc1S(=O)(=O)Nc1cccc(-c2ccc(N3CCOCC3)nn2)c1 | inconclusive: 31.6 µM [activator, single point] |  |
| COc1cccc(-c2csc(NC3OC(=O)c4c3ccc(OC)c4OC)n2)c1 (centres undefined) |  | inactive: 1.15% |
| N#Cc1c(C(F)(F)F)cc(-c2ccccc2Cl)[nH]c1=O |  | inactive: 24.5% |
| COCCn1c(=N)c(C(=O)NC(C)c2ccccc2)cc2c(=O)n3cc(C)ccc3nc21 (centres undefined) |  | inactive: 0.794% |
| Cc1ccccc1NC(=O)Cc1cccs1 |  | inactive: 12.8% |
| COc1ccc(N2C3=C(C(=O)CC(C)(C)C3)C(c3ccccc3OC)C3=C2CC(C)(C)CC3=O)cc1 |  | inactive: 38.1% |
| O=C1CCSC2(C(=O)N(Cc3ccc(F)cc3)c3ccccc32)N1c1ccc(F)c(F)c1 (centres undefined) | inconclusive: 31.6 µM [activator, single point] |  |
| O=C(CCl)N1N=C(c2ccco2)CC1c1ccco1 (centres undefined) | inconclusive: 35.5 µM [activator, single point] |  |
| COc1cccc(NC(=O)Cn2c(=O)n(-c3ccc(C)cc3)c(=O)c3ccc(C(=O)NCc4ccco4)cc32)c1 |  | inactive: 27.3% |
| Cc1c(C(=O)Nc2cccc(Cl)c2)oc2ccc(S(=O)(=O)N(C)C3CCCCC3)cc12 |  | inactive: 21.8% |
| COc1ccc(CC(N)c2csc(NC(=O)c3cccc(OC(F)(F)F)c3)n2)cc1 (centres undefined) |  | inactive: 29.8% |
